{
  "source": "the supplement of paper PMC4604168 (melanoma cell lines)",
  "note": "This is one part of the list. Repeats are few or missing, and single values can be far off.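 Also: cells treated in 1,536-well plates, then fixed and DAPI-stained, with nuclei counted from automated high-throughput microscope images.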",
  "data": [
    {"test_system": "WM451Lu", "assay": "cell count relative to DMSO control; melanoma cells; higher = more viable cells", "settings": "library dose: standard library concentration; 72 h", "units": {"cell count": "%"}, "values": [
      {"smiles": "CO[C@@H]1[C@H](N(C)C(=O)c2ccccc2)C[C@H]2O[C@]1(C)n1c3ccccc3c3c4c(c5c6ccccc6n2c5c31)C(=O)NC4", "note": "[Midostaurin] + COc1ccc2c(c1)CCC1C2CCC2(C)C(NCCCCCCN3C(=O)C=CC3=O)CCC12 [U73122] (first compound 0.4 µM, partner dose 2 µM)", "cell count": 10.6},
      {"smiles": "CO[C@@H]1[C@H](N(C)C(=O)c2ccccc2)C[C@H]2O[C@]1(C)n1c3ccccc3c3c4c(c5c6ccccc6n2c5c31)C(=O)NC4", "note": "[Midostaurin] + COC(=O)c1sccc1S(=O)(=O)Nc1ccc(Nc2ccccc2)cc1OC [GSK0660] (first compound 0.4 µM, partner dose 5 µM)", "cell count": 53.8},
      {"smiles": "OCCn1cc(-c2cnc3nnn(Cc4ccc5ncccc5c4)c3n2)cn1", "note": "+ c1cc(-c2cnn3cc(-c4ccc(OCCN5CCCCC5)cc4)cnc23)ccn1 [Dorsomorphin] (first compound 5 µM, partner dose 2 µM)", "cell count": 90.5},
      {"smiles": "CO[C@@H]1[C@H](N(C)C(=O)c2ccccc2)C[C@H]2O[C@]1(C)n1c3ccccc3c3c4c(c5c6ccccc6n2c5c31)C(=O)NC4", "note": "[Midostaurin] + COc1ccc(-c2ccc3c(N4CCOCC4)nc(N4C[C@@H](C)O[C@@H](C)C4)nc3n2)cc1CO [KU0063794] (first compound 0.4 µM, partner dose 0.1 µM)", "cell count": 73.8},
      {"smiles": "Cc1nc(Nc2ncc(C(=O)Nc3c(C)cccc3Cl)s2)cc(N2CCN(CCO)CC2)n1", "note": "[dasatanib] + CCc1ccc(CCOc2ccc(CC3SC(=O)NC3=O)cc2)nc1 [pioglitazone] (first compound 0.02 µM, partner dose 10 µM)", "cell count": 65.7},
      {"smiles": "CN(C)S(=O)(=O)c1ccc2c(c1)/C(=C/c1cc3c([nH]1)CCCC3)C(=O)N2", "note": "+ O=C1NC(=O)/C(=C/c2ccc(-c3ccc(F)cc3O)o2)S1 [AS252424] (first compound 2 µM, partner dose 5 µM)", "cell count": 65},
      {"smiles": "Cc1nc(Nc2ncc(C(=O)Nc3c(C)cccc3Cl)s2)cc(N2CCN(CCO)CC2)n1", "note": "[dasatanib] + O=C1NC(=O)/C(=C/c2ccc(-c3ccc(F)cc3O)o2)S1 [AS252424] (first compound 0.02 µM, partner dose 5 µM)", "cell count": 82.5},
      {"smiles": "NC(=O)Nc1cc(-c2cccc(F)c2)sc1C(=O)N[C@H]1CCCNC1", "note": "+ O=C(O)C(=O)Nc1sc2c(c1C(=O)O)CCNC2 [TCS401] (first compound 0.1 µM, partner dose 8.33333 µM)", "cell count": 90.1},
      {"smiles": "C[C@]1(c2nc3c(C(N)=O)cccc3[nH]2)CCCN1", "note": "[Veliparib] + O=C(Nc1ccccc1)c1cc([N+](=O)[O-])ccc1Cl [GW9662] (first compound 7 µM, partner dose 10 µM)", "cell count": 71.7},
      {"smiles": "CN(C)S(=O)(=O)c1ccc2c(c1)/C(=C/c1cc3c([nH]1)CCCC3)C(=O)N2", "note": "+ N#Cc1c(O)c2c(-c3ccc(-c4ccccc4O)cc3)csc2[nH]c1=O [A769662] (first compound 2 µM, partner dose 10 µM)", "cell count": 70.8},
      {"smiles": "OCCn1cc(-c2cnc3nnn(Cc4ccc5ncccc5c4)c3n2)cn1", "note": "+ Oc1cc(-c2nc(-c3ccccc3)[nH]c2-c2ccncc2)ccc1Cl [L779450] (first compound 5 µM, partner dose 1 µM)", "cell count": 53.3},
      {"smiles": "Cc1nc(Nc2ncc(C(=O)Nc3c(C)cccc3Cl)s2)cc(N2CCN(CCO)CC2)n1", "note": "[dasatanib] + O=C(O)C(=O)Nc1sc2c(c1C(=O)O)CCNC2 [TCS401] (first compound 0.02 µM, partner dose 8.33333 µM)", "cell count": 70.3},
      {"smiles": "NC(=O)Nc1cc(-c2cccc(F)c2)sc1C(=O)N[C@H]1CCCNC1", "note": "+ O=C(Nc1ccccc1)c1cc([N+](=O)[O-])ccc1Cl [GW9662] (first compound 0.1 µM, partner dose 10 µM)", "cell count": 40.3},
      {"smiles": "C[C@]1(c2nc3c(C(N)=O)cccc3[nH]2)CCCN1", "note": "[Veliparib] + O=C1NC(=O)/C(=C/c2ccc(-c3ccc(F)cc3O)o2)S1 [AS252424] (first compound 7 µM, partner dose 5 µM)", "cell count": 101},
      {"smiles": "NC(=O)Nc1cc(-c2cccc(F)c2)sc1C(=O)N[C@H]1CCCNC1", "note": "+ O=S(=O)(c1ccccc1)N(CC(F)(F)F)c1ccc(C(O)(C(F)(F)F)C(F)(F)F)cc1 [T0901317] (first compound 0.1 µM, partner dose 7 µM)", "cell count": 87.4},
      {"smiles": "CO[C@@H]1[C@H](N(C)C(=O)c2ccccc2)C[C@H]2O[C@]1(C)n1c3ccccc3c3c4c(c5c6ccccc6n2c5c31)C(=O)NC4", "note": "[Midostaurin] + O=C(O)C(=O)Nc1sc2c(c1C(=O)O)CCNC2 [TCS401] (first compound 0.4 µM, partner dose 8.33333 µM)", "cell count": 71.6},
      {"smiles": "NCC(=O)Nc1ccc(-n2nc(C(F)(F)F)cc2-c2ccc3c(ccc4ccccc43)c2)cc1", "note": "+ CCN(CC)CCCCNc1ncc2cc(-c3cc(OC)cc(OC)c3)c(NC(=O)NC(C)(C)C)nc2n1 [PD173074] (first compound 5 µM, partner dose 0.5 µM)", "cell count": 67.1},
      {"smiles": "NCC(=O)Nc1ccc(-n2nc(C(F)(F)F)cc2-c2ccc3c(ccc4ccccc43)c2)cc1", "note": "+ COc1ccc(COc2ccc(Cc3cnc(N)nc3N)cc2OC)cc1 [GW2580] (first compound 5 µM, partner dose 5 µM)", "cell count": 92.1},
      {"smiles": "Cc1nc(Nc2ncc(C(=O)Nc3c(C)cccc3Cl)s2)cc(N2CCN(CCO)CC2)n1", "note": "[dasatanib] + COc1ccc2c(c1)CCC1C2CCC2(C)C(NCCCCCCN3C(=O)C=CC3=O)CCC12 [U73122] (first compound 0.02 µM, partner dose 2 µM)", "cell count": 51.6},
      {"smiles": "C=CCn1c(=O)c2cnc(Nc3ccc(N4CCN(C)CC4)cc3)nc2n1-c1cccc(C(C)(C)O)n1", "note": "+ Oc1nc(-c2ccc(C(F)(F)F)cc2)nc2c1CSCC2 [XAV939] (first compound 0.1 µM, partner dose 10 µM)", "cell count": 84.3},
      {"smiles": "CN(C)S(=O)(=O)c1ccc2c(c1)/C(=C/c1cc3c([nH]1)CCCC3)C(=O)N2", "note": "+ O=S(=O)(c1ccccc1)N(CC(F)(F)F)c1ccc(C(O)(C(F)(F)F)C(F)(F)F)cc1 [T0901317] (first compound 2 µM, partner dose 7 µM)", "cell count": 100},
      {"smiles": "NCC(=O)Nc1ccc(-n2nc(C(F)(F)F)cc2-c2ccc3c(ccc4ccccc43)c2)cc1", "note": "+ O=C(Nc1ccccc1)c1cc([N+](=O)[O-])ccc1Cl [GW9662] (first compound 5 µM, partner dose 10 µM)", "cell count": 69.6},
      {"smiles": "CN(C)S(=O)(=O)c1ccc2c(c1)/C(=C/c1cc3c([nH]1)CCCC3)C(=O)N2", "note": "+ COc1ccc2c(c1)CCC1C2CCC2(C)C(NCCCCCCN3C(=O)C=CC3=O)CCC12 [U73122] (first compound 2 µM, partner dose 2 µM)", "cell count": 81.7},
      {"smiles": "NCC(=O)Nc1ccc(-n2nc(C(F)(F)F)cc2-c2ccc3c(ccc4ccccc43)c2)cc1", "note": "+ CC(C)CCN1c2nc(Nc3cc(F)c(O)c(F)c3)ncc2N(C)C(=O)C1C [BID1870] (first compound 5 µM, partner dose 1 µM)", "cell count": 107},
      {"smiles": "OCCn1cc(-c2cnc3nnn(Cc4ccc5ncccc5c4)c3n2)cn1", "note": "+ COc1ccc(-c2ccc3c(N4CCOCC4)nc(N4C[C@@H](C)O[C@@H](C)C4)nc3n2)cc1CO [KU0063794] (first compound 5 µM, partner dose 0.1 µM)", "cell count": 86.6},
      {"smiles": "Cc1nc(Nc2ncc(C(=O)Nc3c(C)cccc3Cl)s2)cc(N2CCN(CCO)CC2)n1", "note": "[dasatanib] + O=S(=O)(c1ccccc1)N(CC(F)(F)F)c1ccc(C(O)(C(F)(F)F)C(F)(F)F)cc1 [T0901317] (first compound 0.02 µM, partner dose 7 µM)", "cell count": 70.9},
      {"smiles": "C[C@]1(c2nc3c(C(N)=O)cccc3[nH]2)CCCN1", "note": "[Veliparib] + COc1cc(N2CCC(N3CCN(C)CC3)CC2)ccc1Nc1ncc(Cl)c(Nc2ccccc2S(=O)(=O)C(C)C)n1 [NVP-TAE684] (first compound 7 µM, partner dose 0.4 µM)", "cell count": 89}
    ]}
  ]
}
